In the antibiotic and cytotoxicity screens of Wong et al. (2023):
Some of the results follow.

Key:
[1] = system: HSkMC (human skeletal muscle cells); experiment: cytotoxicity call (relative viability < 0.9); details: 10 µM
[2] = system: HepG2; experiment: cytotoxicity call (relative viability < 0.9); details: 10 µM
[3] = system: S. aureus RN4220; experiment: growth inhibition call (relative growth <= 0.2); details: 50 µM

Row | Structure (SMILES) | cytotoxicity call [1] | cytotoxicity call [2] | growth inhibition call [3]
1 | CO[C@H](C(=O)N(C)C[C@@H]1OCc2ccccc2-c2c(n(C)c3ccccc23)C(=O)N([C@@H](C)CO)C[C@H]1C)c1ccccc1 | inactive | inactive | inactive
2 | C[C@H]1CN([C@@H](C)CO)C(=O)c2cc(NC(=O)Nc3cccc4ccccc34)ccc2O[C@@H]1CN(C)Cc1ccc(C(F)(F)F)cc1 | inactive | inactive | inactive
3 | COc1ccc(S(=O)(=O)N(C)C[C@H]2Oc3c(NC(=O)c4cnccn4)cccc3C(=O)N([C@@H](C)CO)C[C@@H]2C)cc1 | inactive | inactive | inactive
4 | C[C@@H]1CCCCO[C@@H](CN(C)S(=O)(=O)c2ccc(F)cc2)[C@@H](C)CN([C@@H](C)CO)C(=O)c2cc(NS(=O)(=O)c3cn(C)cn3)ccc2O1 | inactive | inactive | inactive
5 | Cc1ccc(S(=O)(=O)N(C)C[C@H]2Oc3ccc(N(C)C)cc3CC(=O)N([C@H](C)CO)C[C@@H]2C)cc1 | inactive | inactive | inactive
6 | CO[C@@H]1CN(C)C(=O)c2cc(NS(C)(=O)=O)ccc2OC[C@@H](C)N(C(=O)CN(C)C)C[C@H]1C | inactive | inactive | inactive
7 | C#CCN([C@H](/C=C/C1CC1)[C@@H](O)CCn1cc(-c2ccc(C(=O)NO)s2)nn1)[C@@H](Cc1ccccc1)C(=O)OC | inactive | inactive | inactive
8 | CNC[C@@H]1Oc2ccc(NC(=O)Cn3cnnn3)cc2CC(=O)N([C@H](C)CO)C[C@@H]1C | inactive | inactive | inactive
9 | C[C@H](CO)N1C[C@H](C)[C@@H](CN(C)C(=O)Nc2cccc3ccccc23)Oc2ccc(NC(=O)Nc3ccc4c(c3)OCO4)cc2CC1=O | active | inactive | inactive
10 | Cc1nnn(C23C[C@@H]4C[C@@H](CC(NC(=O)[C@H](N)CC(C)C)(C4)C2)C3)n1 | inactive | inactive | inactive
11 | C[C@@H]1CCCCO[C@H](CN(C)C(=O)c2ccccc2)[C@H](C)CN([C@@H](C)CO)C(=O)c2cc(NC(=O)CCC(F)(F)F)ccc2O1 | inactive | inactive | inactive
12 | C[C@H](CO)N1C[C@H](C)[C@H](CN(C)C(=O)C2CCCCC2)OCCCC[C@H](C)Oc2ccc(NC(=O)Nc3ccc4c(c3)OCO4)cc2C1=O | inactive | inactive | inactive
13 | C[C@H](CO)N1C[C@H](C)[C@@H](CN(C)Cc2ccccc2)OCCCC[C@H](C)Oc2ccc(NC(=O)Nc3ccc4c(c3)OCO4)cc2C1=O | inactive | inactive | inactive
14 | COc1ccc(S(=O)(=O)N(C)C[C@H]2Oc3ccc(NS(=O)(=O)c4cccs4)cc3CC(=O)N([C@H](C)CO)C[C@@H]2C)cc1 | inactive | inactive | inactive
15 | C=CCCC(=O)N(C)[C@H](C)[C@H](OC(=O)[C@@H]1[C@@H]2C=C[C@]3(O2)[C@H](C(=O)N(CC=C)Cc2ccccc2)N(Cc2ccc(OC)cc2)C(=O)[C@@H]13)c1ccccc1 | inactive | inactive | inactive
16 | COc1ccc(NC(=O)N(C)C[C@@H]2OCc3ccccc3-c3c(n(C)c4ccccc34)C(=O)N([C@@H](C)CO)C[C@H]2C)c(OC)c1 | inactive | inactive | inactive
17 | C[C@@H]1CN([C@H](C)CO)C(=O)c2cc(NS(=O)(=O)c3ccc(F)cc3)ccc2O[C@H]1CN(C)S(=O)(=O)c1cn(C)cn1 | inactive | active | inactive
18 | C[C@@H]1CN([C@@H](C)CO)S(=O)(=O)c2ccc(C3=CCCC3)cc2O[C@@H]1CN(C)C(=O)C1CCOCC1 | inactive | inactive | inactive
19 | C/C=C/c1ccc([C@@H]2[C@H](CO)N(S(=O)(=O)CC)C23CN(C(=O)CN(C)C)C3)cc1 | inactive | inactive | inactive
20 | C[C@@H]1CN([C@@H](C)CO)C(=O)c2cc(NC(=O)Cn3cnnn3)ccc2O[C@@H]1CN(C)Cc1ccncc1 | inactive | inactive | inactive
21 | O=C(C[C@@H]1C[C@H]2c3cc(NC(=O)NC4CCCC4)ccc3O[C@H]2[C@@H](CO)O1)NCc1ccc(-c2ccccc2)cc1 | inactive | inactive | inactive
22 | COc1ccc2c3c([nH]c2c1)[C@@H](CO)N(C[C@]13CCN(CC1)Cc1cc(on1)-c1ccccc1)C(=O)Nc1ccc(cc1)F | active | inactive | inactive
23 | COc1ccc2c3c([nH]c2c1)[C@@H](CO)N(C[C@]13CCN(CC1)Cc1ccccc1)C(=O)CN1CCOCC1 | inactive | inactive | inactive
